Target: T1, hBMP-9 (human, UniProt Q9UK05 320-429)
T1 construct: also called human BMP-9
T1 sequence (looked up): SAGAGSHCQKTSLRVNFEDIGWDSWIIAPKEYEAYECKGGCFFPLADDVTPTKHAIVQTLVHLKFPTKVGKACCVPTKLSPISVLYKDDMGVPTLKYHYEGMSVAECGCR
Assay: SPR kinetics, captured construct
Procedure: BMP-9 binding to captured CHO-cell-derived proteins was assessed at ligand concentrations of 0.0195-0.625 nM in two-fold increments. RU, response units.

fold decrease in dissociation rate against the full-length construct hENG(26-586)-hFc: 10 fold
B1: hENG(26-346)-hFc (Fc fusion)
chain: ETVHCDLQPVGPERDEVTYTTSQVSKGCVAQAPNAILEVHVLFLEFPTGPSQLELTLQASKQNGTWPREVLLVLSVNSSVFLHLQALGIPLHLAYNSSLVTFQEPPGVNTTELPSFPKTQILEWAAERGPITSAAELNDPQSILLRLGQAQGSLSFCMLEASQDMGRTLEWRPRTPALVRGCHLEGVAGHKEAHILRVLPGHSAGPRTVTVKVELSCAPGDLDAVLILQGPPYVSWLIDANHNMQIWTTGEYSFKIFPEKNIRGFKLPDTPQGLLGEARMLNASIVASFVELPLASIVSLHASSCGGRLQTSPAPIQTTPPTG[letters of human IgG1 Fc and a few adjoining residues omitted]
